In PubChem BioAssay (Tox21):
Several values for one entry are separate records, joined by “and”; a condition that tells them apart may be missing. Equal entries are not always repeated. Inconclusive results, whose numbers are uncertain, are shown with a selection of clear calls. For some assays here: Where the call is inconclusive, the potency comes from a doubtful curve fit. Activity calls are given as the source filed them. Unless noted, calls follow the shape of the full dose curve.

Columns and labels:
[1] = biological target: Progesterone receptor (Homo sapiens) (UniProt P06401); assay: qHTS assay to identify small molecule agonists of the progesterone receptor (PR) signaling pathway (AID 1346784); conditions: PR-UAS-bla HEK293T, beta-lactamase FRET ratio, 16 h; activation: at 92.4 µM (top of the series) unless noted; also: nearly all actives have a fitted effect of over 30% in size; also: potency is read from the fitted curve at half-maximal effect; as to activation: % is scaled to controls: 0 for no effect and ±100 for the full control effect
How it was run: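 PR-UAS-bla HEK 293T cells carrying a UAS-driven beta-lactamase reporter were seeded in medium with 2% charcoal-stripped FBS, preincubated 6 hr at 37C, then exposed to compounds in DMSO for 16 hr; agonism was read by LiveBLAzer B/G FRET fluorescence.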

[2] = qHTS assay to identify small molecule agonists of the progesterone receptor (PR) signaling pathway - cell viability counter screen (AID 1346799); also: nearly all actives have a fitted effect of over 45% in size; also: potency is read from the fitted curve at half-maximal effect
How it was run: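 PR-UAS-bla HEK293T cells, 3,000 per well in medium with 2% charcoal-stripped FBS, were preincubated 6 hr at 37C, then exposed to compounds for 16 hr; viability was read as CellTiter-Glo luminescence after 30 min at room temperature.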

[3] = biological target: Progesterone receptor (Homo sapiens) (UniProt P06401); assay: qHTS assay to identify small molecule antagonists of the progesterone receptor (PR) signaling pathway (AID 1346795; active = well fitted inhibition curve with a large enough effect in the signal ratio in the repeat runs, not every such curve was filed as active; inconclusive = weak or mixed curves; the % refers to the signal ratio; also: potency is read from the fitted curve at half-maximal effect; as to activity change, negative = inhibition: % is scaled to controls: 0 for no effect and ±100 for the full control effect); conditions: PR-UAS-bla HEK293T, beta-lactamase FRET ratio, 16 h; activity change, negative = inhibition: at 92.4 µM (top of the series) unless noted
How it was run: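 PR-UAS-bla HEK293T cells carrying a UAS-driven beta-lactamase reporter were plated in medium with 2% charcoal-stripped FBS and rested 6 hr at 37C. Compounds were added with 1 nM R5020 (final) for 16 hr, then FRET substrate loaded 2 hr at room temperature.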

[4] = qHTS assay to identify small molecule antagonists of the progesterone receptor (PR) signaling pathway - cell viability counter screen (AID 1346798; active = well fitted curve in the direction sought with a large enough effect in the repeat runs; inconclusive = weak or mixed curves; inactive = no such curve, though single readings can be large; an effect the other way counts as inactive or inconclusive; also: nearly all actives have a fitted effect of over 50% in size; also: potency is read from the fitted curve at half-maximal effect)
How it was run: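 PR-UAS-bla HEK293T cells in medium with 2% charcoal-stripped FBS were treated with compounds plus R5020 for 16 hr at 37C. Cell viability was then read by CellTiter-Glo luminescence after 30 min at room temperature in the same wells.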

[5] = qHTS assay to identify small molecule agonists of the estrogen receptor alpha (ER-alpha) signaling pathway in the presence of an antagonist - cell viability counter screen (AID 1259386; active = well fitted curve in the direction sought with a large enough effect in the repeat runs; inconclusive = weak or mixed curves; inactive = no such curve, though single readings can be large; an effect the other way counts as inactive or inconclusive;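 also: cells exposed to compounds for 22 h at 37 °C before the viability read; nearly all actives have a fitted effect of over 30% in size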; also: potency is read from the fitted curve at half-maximal effect)
How it was run: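 VM7Luc4E2 cells (endogenous full-length ER-alpha, 4×ERE-luciferase) were held 5 days in phenol red-free medium with 10% charcoal-stripped FBS, plated, then given 10.0nM ICI-182,780 and compounds at 15 concentrations for 22hr at 37C; viability read by CellTiter-Fluor fluorescence.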

[6] = qHTS assay to identify small molecule antagonists of the TGF-beta/Smad signaling pathway (AID 1346924; active = well fitted inhibition curve with a large enough effect in the signal ratio in the repeat runs, not every such curve was filed as active; inconclusive = weak or mixed curves; the % refers to the signal ratio; also: potency is read from the fitted curve at half-maximal effect); conditions: SBE-bla HEK293T, TGF-beta/Smad reporter, beta-lactamase ratio; activity, negative = inhibition: at 76.8 µM (top of the series) unless noted
How it was run: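 SBE-bla HEK 293T cells were plated overnight, then received compound in DMSO plus TGF-beta1 (added as a 0.25 ng/mL solution) and were incubated 5 h at 37 C. Beta-lactamase reporter activity was read after 2 h at room temperature with LiveBLAzer B/G FRET substrate (ex 405, em 460/530 nm).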

[7] = qHTS assay to identify small molecule agonists of the TGF-beta/Smad signaling pathway - cell viability counter screen (AID 1346829; active = well fitted curve in the direction sought with a large enough effect in the repeat runs; inconclusive = weak or mixed curves; inactive = no such curve, though single readings can be large; an effect the other way counts as inactive or inconclusive; also: top concentration of the series differs between compounds; % is scaled to controls: 0 for no effect and ±100 for the full control effect; nearly all actives have a fitted effect of over 45% in size)
How it was run: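 After overnight seating at 37 C and 5% CO2, reporter cells got compounds for 5 hr and FRET substrate for 2 hr; cell viability then came from CellTiter-Glo luminescence.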

[8] = qHTS assay to identify small molecule agonists of the TGF-beta/Smad signaling pathway (AID 1346859; active = well fitted activation curve with a large enough effect in the signal ratio in the repeat runs, not every such curve was filed as active; inconclusive = weak or mixed curves; the % refers to the signal ratio; also: % is scaled to controls: 0 for no effect and ±100 for the full control effect); conditions: SBE-bla HEK293T, TGF-beta/Smad beta-lactamase reporter, 5 h; activation: at 76.8 µM (top of the series) unless noted
How it was run: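 HEK 293T cells stably carrying a beta-lactamase reporter driven by the Smad binding element were seeded overnight, exposed to DMSO-dissolved compounds for 5 hr at 37 C, 5% CO2, then loaded with FRET substrate for 2 hr at room temperature.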
Tags tell the direction and shape of the fitted curve or compound fluorescence and quenching.

Sequence of UniProt P06401 (P06401 whole entry, looked up): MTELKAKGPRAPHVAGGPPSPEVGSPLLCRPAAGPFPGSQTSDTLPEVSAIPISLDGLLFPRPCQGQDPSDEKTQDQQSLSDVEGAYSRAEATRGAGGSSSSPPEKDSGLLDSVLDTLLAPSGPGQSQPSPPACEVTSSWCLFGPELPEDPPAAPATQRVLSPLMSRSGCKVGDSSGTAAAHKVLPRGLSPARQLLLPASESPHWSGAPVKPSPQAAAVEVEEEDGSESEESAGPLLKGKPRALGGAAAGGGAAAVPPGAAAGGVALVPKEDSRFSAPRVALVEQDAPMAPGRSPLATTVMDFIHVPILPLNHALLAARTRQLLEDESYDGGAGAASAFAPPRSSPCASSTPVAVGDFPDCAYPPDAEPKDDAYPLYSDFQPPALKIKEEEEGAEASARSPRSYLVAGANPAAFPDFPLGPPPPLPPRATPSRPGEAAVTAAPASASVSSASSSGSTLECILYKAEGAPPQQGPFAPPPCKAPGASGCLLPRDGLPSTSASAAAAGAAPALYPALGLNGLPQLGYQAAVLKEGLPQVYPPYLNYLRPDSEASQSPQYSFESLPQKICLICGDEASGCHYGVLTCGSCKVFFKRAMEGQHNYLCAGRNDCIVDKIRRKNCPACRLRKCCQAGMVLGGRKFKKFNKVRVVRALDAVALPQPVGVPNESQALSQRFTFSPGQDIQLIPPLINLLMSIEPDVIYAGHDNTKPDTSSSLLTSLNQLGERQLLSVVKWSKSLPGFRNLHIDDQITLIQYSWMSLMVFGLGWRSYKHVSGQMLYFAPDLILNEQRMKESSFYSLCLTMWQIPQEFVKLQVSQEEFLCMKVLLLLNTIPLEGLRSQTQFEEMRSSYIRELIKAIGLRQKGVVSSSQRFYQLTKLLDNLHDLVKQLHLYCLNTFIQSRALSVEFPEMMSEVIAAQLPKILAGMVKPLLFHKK

For `C=CCN1CCc2nc(N)sc2CC1`, the Potency [1] was “inactive” and the Potency [2] was inconclusive: 13.3 µM [cytotoxic, single point].
For `O=C(/C=C/c1ccccc1)OCc1ccccc1`, the activation [1] was inconclusive: 20.8%.
With `CCCCCCC(CCCCCCCCCCC(=O)OCC(COC(C)=O)OC(C)=O)OC(C)=O` (configuration not stated) the Potency [1] was “inactive” and the Potency [3] was “inactive”.
With `N#CC1(c2ccc(F)cc2)CCC(=O)CC1` the Potency [1] was “inactive”, the Potency [3] was inconclusive: 21.1 µM [falling, partial curve] and the Potency [4] was inconclusive: 1.33 µM [rising, partial curve].
With `COC(=O)c1ccccc1` the Potency [1] was “inactive”.
With `Cc1ccc(S(=O)(=O)O)cc1` the Potency [1] was “inactive”.
In the case of `C[N+](C)(C)CC[N+]1(C)Cc2c(Cl)c(Cl)c(Cl)c(Cl)c2C1`, the Potency [5] is reported as “inactive” and the Potency [3] is reported as “inactive”.
For `CCc1cccc(C)c1`, the Potency [1] was “inactive” and the Potency [2] was “inactive”.
In the case of `C[C@@H]1C[C@H]2[C@@H]3C[C@H](F)C4=CC(=O)C=C[C@]4(C)[C@@]3(F)[C@@H](O)C[C@]2(C)[C@@]1(O)C(=O)CO`, the Potency [1] is reported as active: 5.96 µM and the activity change, negative = inhibition [3] is reported as inconclusive: 1.62% [at 42.5 µM].
For `CCOC(=O)NNc1ccc(N(CC)CC(C)O)nn1` (configuration not stated), the Potency [1] was “inactive”.
With `NC(N)=Nc1nc(CSCC/C(N)=N/S(N)(=O)=O)cs1` the Potency [5] was inconclusive: 48.6 µM [cytotoxic, partial curve], the Potency [3] was inconclusive: 29.8 µM [falling, single point] and the activity change, negative = inhibition [3] was inconclusive: 9.25%.
With `CC(COCC(C)OC(=O)c1ccccc1)OC(=O)c1ccccc1` (configuration not stated) the Potency [1] was “inactive” and the activity change, negative = inhibition [3] was inconclusive: -24.9% and inconclusive: -31.8%.
In the case of `O`, the activation [1] is reported as inconclusive: 16.8%.
In the case of `CCCCCCC/C=C/C=O`, the Potency [5] is reported as “inactive”, the Potency [2] is reported as inconclusive: 30.6 µM [cytotoxic, partial curve] and the activity, negative = inhibition [6] is reported as inconclusive: 0.294%.
For `CCOC(=O)c1ccc(C#Cc2ccc3c(c2)C(C)(C)CCS3)nc1`, the Potency [1] was inconclusive: 26.6 µM [falling, partial curve, poor fit], the activity change, negative = inhibition [3] was inconclusive: -31.4% [at 42.5 µM] and the Potency [4] was inconclusive: 13.3 µM [rising, partial curve, poor fit]. For the same compound, the Potency [2] was inconclusive: 11.9 µM [rising, single point].
In the case of `O=C(Cn1ccnc1[N+](=O)[O-])NCCO`, the Potency [1] is reported as “inactive” and the Potency [2] is reported as “inactive”.
In the case of `OC1CCCCC1`, the Potency [1] is reported as “inactive”, the Potency [3] is reported as “inactive” and the Potency [7] is reported as “inactive”.
With `Cc1ccc(CO)cc1` the Potency [1] was active: 17.4 µM and the activity change, negative = inhibition [3] was inconclusive: 3.03%.
With `CC(C)(C)NC(=O)[C@@H]1CN(Cc2cccnc2)CCN1C[C@@H](O)C[C@@H](Cc1ccccc1)C(=O)N[C@H]1c2ccccc2C[C@H]1O` the Potency [5] was inconclusive: 40.5 µM [cytotoxic, partial curve] and the activity change, negative = inhibition [3] was inconclusive: 0.648% [at 42.5 µM].
For `O=C(O)c1cccc([N+](=O)[O-])c1`, the Potency [1] was inconclusive: 43.3 µM [rising, single point] and the Potency [2] was inconclusive: 6.86 µM [cytotoxic, full curve, poor fit].
In the case of `CCOC(=O)c1ccc(I)cc1`, the Potency [1] is reported as active: 5.5 µM, the Potency [3] is reported as “inactive” and the Potency [2] is reported as inconclusive: 24.6 µM [rising, partial curve].
For `Cc1cccc2n[nH]nc12`, the Potency [1] was inconclusive: 68.6 µM [cytotoxic], the activity change, negative = inhibition [3] was inconclusive: -9.98% and the Potency [7] was “inactive”. For the same compound, the activity, negative = inhibition [6] was inconclusive: 2.67%.
In the case of `CCN(C(=O)N(CC)c1ccccc1)c1ccccc1`, the activation [1] is reported as inconclusive: 1.64%, the Potency [3] is reported as active: 30.6 µM and the Potency [8] is reported as “inactive”.
With `Clc1nc2ccccc2nc1Cl` the Potency [1] was “inactive”.
In the case of `O=C(OCc1ccccc1)c1ccccc1`, the Potency [5] is reported as “inactive” and the Potency [1] is reported as “inactive”.
In the case of `CC(C)(COC(=O)c1ccccc1)COC(=O)c1ccccc1`, the Potency [5] is reported as “inactive”, the activity change, negative = inhibition [3] is reported as inconclusive: -33.7% and the Potency [2] is reported as inconclusive: 68.6 µM [rising, partial curve, poor fit].
In the case of `Cc1cc(C2CCCCC2)n(O)c(=O)c1`, the Potency [5] is reported as inconclusive: 10.6 µM [cytotoxic, full curve], the activation [1] is reported as inconclusive: -10.6% [at 42.5 µM] and the Potency [3] is reported as active: 3.35 µM. The activity, negative = inhibition [6] was inconclusive: 4.86% [at 35.3 µM].
In the case of `CC(C)CC(C)O` (configuration not stated), the Potency [1] is reported as inconclusive: 0.0054 µM [falling, full curve, poor fit] and the Potency [4] is reported as inconclusive: 1.93 µM [rising, partial curve].
For `CCNc1nc(N)nc(Cl)n1`, the Potency [5] was “inactive” and the Potency [4] was “inactive”.
For `Cc1ccccc1N=C(N)Nc1ccccc1C`, the Potency [5] was inconclusive: 26.8 µM [cytotoxic, partial curve, poor fit], the Potency [3] was “inactive” and the Potency [7] was “inactive”.
For `O=C(O)c1ccc(-n2nc(-c3ccccc3O)nc2-c2ccccc2O)cc1`, the Potency [1] was “inactive”, the Potency [3] was active: 6.68 µM and the Potency [6] was inconclusive: 23.9 µM [rising, partial curve, poor fit].
In the case of `CC1=C(C=O)C(C)(C)CCC1`, the Potency [5] is reported as “inactive” and the Potency [3] is reported as “inactive”.
With `CC(=O)CCC(C)C` the Potency [5] was “inactive”, the Potency [1] was “inactive” and the Potency [3] was inconclusive: 1.09 µM [falling, full curve, poor fit]. The Potency [4] was “inactive”.
